The values that follow come from publication PMC4336329 (PLoS ONE, 2015).

Each structure is given as a SMILES string. The campaign covered roughly 310,000 compounds. About 14,000 (4.5%) showed an effect of 50% or more. The effect is printed as a negative number. Some of the results follow.
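Also: peak tail current of the secondary pulse compared with the same well before compound.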

human ether-à-go-go-related gene (hERG) potassium channel, sequence (Q12809 whole entry, looked up): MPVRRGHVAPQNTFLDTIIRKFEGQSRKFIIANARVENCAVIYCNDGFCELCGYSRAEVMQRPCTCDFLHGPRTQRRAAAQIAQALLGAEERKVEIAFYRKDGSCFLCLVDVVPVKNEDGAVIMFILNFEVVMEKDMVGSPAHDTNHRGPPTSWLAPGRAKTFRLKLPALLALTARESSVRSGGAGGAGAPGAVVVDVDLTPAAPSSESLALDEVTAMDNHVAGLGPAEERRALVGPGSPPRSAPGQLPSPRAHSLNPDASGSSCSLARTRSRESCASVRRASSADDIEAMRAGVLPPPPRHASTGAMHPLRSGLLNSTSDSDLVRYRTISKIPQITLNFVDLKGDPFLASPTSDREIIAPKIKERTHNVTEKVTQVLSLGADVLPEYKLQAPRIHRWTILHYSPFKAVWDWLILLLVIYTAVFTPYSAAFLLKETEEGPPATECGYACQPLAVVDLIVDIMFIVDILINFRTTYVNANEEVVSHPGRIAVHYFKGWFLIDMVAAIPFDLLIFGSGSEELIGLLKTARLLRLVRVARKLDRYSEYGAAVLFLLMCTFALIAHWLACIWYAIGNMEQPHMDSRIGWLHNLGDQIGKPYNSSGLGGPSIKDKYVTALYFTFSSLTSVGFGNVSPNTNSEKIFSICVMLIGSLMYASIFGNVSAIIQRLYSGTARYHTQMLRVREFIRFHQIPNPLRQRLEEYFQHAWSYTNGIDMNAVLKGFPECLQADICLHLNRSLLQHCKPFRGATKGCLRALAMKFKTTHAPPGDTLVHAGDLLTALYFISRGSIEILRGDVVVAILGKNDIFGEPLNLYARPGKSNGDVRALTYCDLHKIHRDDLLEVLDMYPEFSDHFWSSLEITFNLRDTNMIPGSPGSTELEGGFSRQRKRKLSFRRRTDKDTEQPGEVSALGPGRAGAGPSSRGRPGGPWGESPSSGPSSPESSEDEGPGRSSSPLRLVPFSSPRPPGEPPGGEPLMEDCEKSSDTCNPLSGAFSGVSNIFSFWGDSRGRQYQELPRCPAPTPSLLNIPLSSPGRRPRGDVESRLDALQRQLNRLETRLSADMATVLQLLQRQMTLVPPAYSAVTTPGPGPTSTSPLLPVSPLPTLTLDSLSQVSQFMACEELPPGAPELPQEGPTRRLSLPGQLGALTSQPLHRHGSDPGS

This experiment concerns the target human ether-à-go-go-related gene (hERG) potassium channel (human, UniProt Q12809). The experiment in a line: primary screen, population patch clamp on CHO cells stably expressing hERG.
Regarding `COc1ccc(CNCc2cccn2C)cc1.Cl`, the “hERG current change (%, negative = inhibition) at 10uM” value is reported as -4.97%.
Take `COc1ccc(CCNC(=S)N2CCN(S(=O)(=O)c3ccc(F)cc3)CC2)cc1`: the “hERG current change (%, negative = inhibition) at 10uM” value was -3.29%.
The figure for `Cc1ccc2cc(/C=C3\N=C(c4ccccc4)OC3=O)c(N3CCOCC3)nc2c1` is 11.6%.
On to `COc1ccc(C(=O)NC2CC2)cc1OC1CCN(Cc2ccc(F)cc2F)CC1`, for which the “hERG current change (%, negative = inhibition) at 10uM” value was -81.5%.
Under `CCC(Oc1ccc(Cl)cc1)C(=O)N1CC(=O)Nc2ccccc21` (stereo not shown) stands -0.0578%.
On to `CS(=O)(=O)N1CCC(NC(=O)Cc2ccccc2)CC1`, for which the “hERG current change (%, negative = inhibition) at 10uM” value turned out to be 14.9%.
The figure for `COc1ccc(C2(c3ccc(OC)cc3)NC(=O)N(CC(=O)NCC(C)c3ccccc3)C2=O)cc1` (stereo not shown) is 9.02%; for `COc1cccc(C(c2sc3nc(C)nn3c2O)N2CCN(c3ccccc3F)CC2)c1` (stereo not shown) it is -14.9%; for `CCOC(=O)N1CCN(c2nc3ccccn3c(=O)c2C=O)CC1` it is 8.85%.
For `O=C(O)C1CCCN(C(=O)c2cccc3ccccc23)C1` (stereo not shown), the “hERG current change (%, negative = inhibition) at 10uM” value is 6.76%.
Under `CC(=O)c1cc(CN2CCC(n3nccc3NC(=O)c3ccccc3)CC2)cs1` stands -10.9%.
With `CC(C)(C)NS(=O)(=O)c1ccc(C(=O)Nc2ccc3c(c2)OCO3)cc1`, the “hERG current change (%, negative = inhibition) at 10uM” value is listed as 2.59%.
Under `CCN(CC(=O)NCc1cccs1)C(=O)/C=C/c1cccc(OC)c1OC` stands -6.85%.
For the compound `COc1ccc(NC(=O)CSc2ncnc3c2cnn3Cc2ccccc2)cc1OC`, the “hERG current change (%, negative = inhibition) at 10uM” value is 23.1%.
Under `COc1ccccc1Cn1c(CO)nc2ccccc21` stands -0.932%; under `COc1ccc(C(C(=O)NC(C)(C)C)N(C(=O)CNC(=O)c2cccs2)c2ccc(C(C)C)cc2)cc1OC` (stereo not shown), -7.95%.
As to `O=C(NC1=NCCS1)C1CC(=O)N(c2ccc(F)cc2)C1` (stereo not shown), the “hERG current change (%, negative = inhibition) at 10uM” value was determined as 9.9%.
For the compound `Cc1ccc(-n2nc3c(c2NC(=O)c2ccc4c(c2)OCO4)CS(=O)(=O)C3)cc1`, the “hERG current change (%, negative = inhibition) at 10uM” value is -5.49%.
Consider `CN(CCOc1ccccc1)C(=O)CCc1nc2sc3c(c2c(=O)[nH]1)CCCC3`, for which the “hERG current change (%, negative = inhibition) at 10uM” value was 15.9%.
Under `O=C(/C=C/c1ccc(F)cc1)NC(=S)Nc1ccccc1C(=O)NC1CCCCC1` stands 2.56%.
Consider `Cc1ccc(Cl)cc1N1CCN(C(=O)CCS(=O)(=O)c2ccc3c(c2)NC(=O)CO3)CC1`, for which the “hERG current change (%, negative = inhibition) at 10uM” value is listed as -10.9%.
The figure for `CNC(=O)CCCCC(=O)N/N=C/c1ccc(Cl)cc1Cl` is -11.3%; for `COC(=O)c1[nH]c2ccc(C)cc2c1NC(=O)CN1CCc2cc(OC)c(OC)cc2C1` it is -9.69%.
Turning to `Cn1ncc(Cl)c1C(=O)N1CCN(S(=O)(=O)c2ccc(Cl)s2)CC1`, the “hERG current change (%, negative = inhibition) at 10uM” value is -33.7%.
The figure for `Cl.O=C(CN1CCN(C2CCCCC2)CC1)Nc1ccccc1N1CCCCC1` is -66.2%.
As for `Cc1ccc(-c2c3c(=O)n(C)c(=O)n(C)c3cn2-c2ccccc2O)cc1`, the “hERG current change (%, negative = inhibition) at 10uM” value was 6.49%.
The figure for `O=c1c2c3nc4ccccc4nc3n(CC3CCCO3)c2ncn1CCc1ccccc1` (stereo not shown) is -5.67%.
As for `CCOc1cc(CN2CCCC(N3CCc4ccccc4C3)C2)ccc1O` (stereo not shown), the “hERG current change (%, negative = inhibition) at 10uM” value was -21.4%.
In the case of `O=C(CCN1CCN(c2ccc(Cl)cc2)CC1)Nc1nccs1`, the “hERG current change (%, negative = inhibition) at 10uM” value is -13.3%.
The figure for `CC(=O)N1CCN(C23CC4CC(CC(C4)C2)C3)CC1` is 12.3%; for `CCOC(=O)[C@H]1[C@H]2COc3ccc(C)cc3[C@@H]2N2C(=O)CN(Cc3ccc(F)cc3)C(=O)[C@@]12C` it is -10.8%.
Consider `Cc1ccc(OCC(=O)OC2CCCN(C)C2)cc1.Cl` (stereo not shown), for which the “hERG current change (%, negative = inhibition) at 10uM” value is recorded as 11.6%.
Under `CCOc1ccc2nc(N3CCC(C(=O)N4CCC5(CC4)OCCO5)CC3)sc2c1` stands -8.46%; under `CC1(C)Oc2ccc3ccc(=O)oc3c2/C(=C/Nc2ccc(O)cc2)C1=O`, 27.2%.
`CCCCOc1ccc(-c2nnn(CCC(=O)N3CCOCC3)n2)cc1`: the “hERG current change (%, negative = inhibition) at 10uM” value is given as -45.4%.
In the case of `CC(=O)N(C(C)=O)n1c(/C=C/c2ccc([N+](=O)[O-])cc2)nc2ccccc2c1=O`, the “hERG current change (%, negative = inhibition) at 10uM” value is -18.8%.
Under `COc1ccccc1C(=O)NC(=O)CSc1nnc(C)s1` stands 17.5%; under `N#CC(c1ccccc1F)(c1ncc(C(F)(F)F)cc1Cl)N1CCOCC1` (stereo not shown), -4.31%; under `COC(=O)c1c(NC(=O)C(=O)N2CCOCC2)sc2c1CCC2`, 19.3%.
Under `CCN(CC)C(=O)N1c2ccccc2Sc2ccccc21` stands -2.13%.
For `CC(C)n1c(NCc2cccs2)nc2ccccc21`, the “hERG current change (%, negative = inhibition) at 10uM” value was -12.6%.
Take `CC(=Nc1ccccc1C)C1=C(O)CSC1=O`: the “hERG current change (%, negative = inhibition) at 10uM” value is reported as -1.32%.
Regarding `NNC(=O)c1ccc(COc2ccc3c(c2)CCC3)cc1`, the “hERG current change (%, negative = inhibition) at 10uM” value is recorded as -32.6%.
